The other results are listed elsewhere or left out. Most values come without repeats; read them as rough.
What was measured:
Experiment in all cases: cell count relative to DMSO control; melanoma cells; higher = more viable cells
Details in all cases: library dose: low library concentration; 72 h
COLO792 = test system: COLO792
COLO800 = test system: COLO800
COLO829 = test system: COLO829
G361 = test system: G361
IPC-298 = test system: IPC-298
IST-MEL1 = test system: IST-MEL1
LB2518-MEL = test system: LB2518-MEL
LOXIMVI = test system: LOXIMVI
MEL-HO = test system: MEL-HO
MZ2-MEL = test system: MZ2-MEL
MeWo = test system: MeWo
RPMI7951 = test system: RPMI7951
RVH-421 = test system: RVH-421
SkMel28 = test system: SkMel28
SkMel2 = test system: SkMel2
SkMel30 = test system: SkMel30
SkMel5 = test system: SkMel5
UACC257 = test system: UACC257
UACC62 = test system: UACC62
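Note: cell number obtained by counting DAPI-stained nuclei in high-throughput microscope images with image analysis software, screen run in 1,536-well plates.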

Row | Structure (SMILES) | cell count (COLO792) | cell count (COLO800) | cell count (COLO829) | cell count (G361) | cell count (IPC-298) | cell count (IST-MEL1) | cell count (LB2518-MEL) | cell count (LOXIMVI) | cell count (MEL-HO) | cell count (MZ2-MEL) | cell count (MeWo) | cell count (RPMI7951) | cell count (RVH-421) | cell count (SkMel28) | cell count (SkMel2) | cell count (SkMel30) | cell count (SkMel5) | cell count (UACC257) | cell count (UACC62)
1 | CCCS(=O)(=O)Nc1ccc(F)c(C(=O)c2c[nH]c3ncc(Cl)cc23)c1F + O=C1NC(=O)/C(=C/c2ccc(-c3ccc(F)cc3O)o2)S1 [AS252424] (first compound 0.08 µM, partner dose 1 µM) | 98.5% | 120% | 86.9% | 76.2% | 92.6% | 103% | 106% | 78.3% | 73.1% | 86.2% | 102% | 107% | 76.3% | 69.6% | 88.3% | 90.6% | 110% | 70.1% | 54.2%
2 | NC1(c2ccc(-c3nc4ccn5c(=O)[nH]nc5c4cc3-c3ccccc3)cc2)CCC1 + O=C(Nc1ccccc1)c1cc([N+](=O)[O-])ccc1Cl [GW9662] (first compound 0.4 µM, partner dose 2 µM) | 79.7% | 137% | 82.5% | 102% | 100% | 101% | 91.8% | 98.7% | 97.4% | 88.8% | 94.8% | 85.3% | 107% | 88.9% | 101% | 110% | 81.1% | 79.1% | 72.8%
3 | CN(c1ncccc1CNc1nc(Nc2ccc3c(c2)CC(=O)N3)ncc1C(F)(F)F)S(C)(=O)=O + COc1ccc(COc2ccc(Cc3cnc(N)nc3N)cc2OC)cc1 [GW2580] (first compound 0.08 µM, partner dose 1 µM) | 91.1% | 99.8% | 103% | 90.3% | 91.5% | 94% | 115% | 87.7% | 85.5% | 86.1% | 98.6% | 74.3% | 91.2% | 79.7% | 96.4% | 101% | 76.6% | 74.5% | 67.5%
4 | CN(c1ncccc1CNc1nc(Nc2ccc3c(c2)CC(=O)N3)ncc1C(F)(F)F)S(C)(=O)=O + Cn1cc(/C=C2\C(=O)Nc3cccnc32)c2ccccc21 [GW441756] (first compound 0.08 µM, partner dose 0.4 µM) | 86.9% | 88.9% | 89% | 85.4% | 95% | 91.9% | 108% | 94.1% | 75.5% | 87.9% | 88.7% | 56.6% | 90.5% | 80.8% | 78.7% | 102% | 74.8% | 71% | 74.8%
5 | C=C(c1ccc(C(=O)O)cc1)c1cc2c(cc1C)C(C)(C)CCC2(C)C [Bexarotene] + O=C(O)C(=O)Nc1sc2c(c1C(=O)O)CCNC2 [TCS401] (first compound 2 µM, partner dose 1.66667 µM) | 113% | 132% | 95.2% | 85.2% | 96.8% | 110% | 106% | 78% | 96% | 107% | 96.3% | 99.2% | 92.9% | 94.3% | 99.1% | 97.6% | 81.7% | 83.2% | 93.5%
6 | C=C(c1ccc(C(=O)O)cc1)c1cc2c(cc1C)C(C)(C)CCC2(C)C [Bexarotene] + CC(C)(C)c1cnc(CSc2cnc(NC(=O)C3CCNCC3)s2)o1 [SNS-032] (first compound 2 µM, partner dose 0.01 µM) | 108% | 122% | 106% | 98.4% | 104% | 90.2% | 93.3% | 82.9% | 87.8% | 110% | 94% | 91.8% | 88.2% | 73.8% | 99.8% | 96.7% | 85.5% | 72.1% | 79.6%
7 | CS(=O)(=O)c1ccc(C(=O)Nc2ccc(Cl)c(-c3ccccn3)c2)c(Cl)c1 [vismodegib] + COc1cc(N2CCC(N3CCN(C)CC3)CC2)ccc1Nc1ncc(Cl)c(Nc2ccccc2S(=O)(=O)C(C)C)n1 [NVP-TAE684] (first compound 1 µM, partner dose 0.08 µM) | 102% | 95.5% | 113% | 79.6% | 94.8% | 102% | 121% | 111% | 81.2% | 94.8% | 96.1% | 82.5% | 122% | 85.9% | 91% | 104% | 88.5% | 65.4% | 93.3%
8 | NC1(c2ccc(-c3nc4ccn5c(=O)[nH]nc5c4cc3-c3ccccc3)cc2)CCC1 + CC(C)(C)c1cnc(CSc2cnc(NC(=O)C3CCNCC3)s2)o1 [SNS-032] (first compound 0.4 µM, partner dose 0.01 µM) | 56.3% | 66.1% | 91.1% | 101% | 103% | 95.1% | 81.3% | 120% | 77.4% | 104% | 88.9% | 83.3% | 93% | 65.5% | 87.3% | 92.7% | 90% | 83% | 64.2%

— the supplement of paper PMC4604168 (melanoma cell lines)
